Out of some 410,000 compounds screened, about 6,400 (1.6%) were called active. The inconclusive results got no clear call from the source; some entries with a clear call stand among them for comparison. The call rests on the fitted dose curve; in most records, active means well fitted inhibition curve with a large enough effect; inconclusive means small, poorly fitted or top-dose-only effect; inactive means no such curve, though single readings can be large or run the other way. Potencies beside an inconclusive call are fits to weak or partial responses and may not hold up.
biological target: Glucagon-like peptide 1 receptor (Homo sapiens) (UniProt P43220); experiment: qHTS of GLP-1 Receptor Inverse Agonists (Inhibition Mode); conditions: HEK293 GLP-1R CRE-luciferase, luminescence, 24 h, GLP-1R form is constitutively active; series mostly up to 38.3 µM; further: nearly all actives have a fitted effect of over 55% in size
Chain of UniProt P43220 (P43220 whole entry, looked up): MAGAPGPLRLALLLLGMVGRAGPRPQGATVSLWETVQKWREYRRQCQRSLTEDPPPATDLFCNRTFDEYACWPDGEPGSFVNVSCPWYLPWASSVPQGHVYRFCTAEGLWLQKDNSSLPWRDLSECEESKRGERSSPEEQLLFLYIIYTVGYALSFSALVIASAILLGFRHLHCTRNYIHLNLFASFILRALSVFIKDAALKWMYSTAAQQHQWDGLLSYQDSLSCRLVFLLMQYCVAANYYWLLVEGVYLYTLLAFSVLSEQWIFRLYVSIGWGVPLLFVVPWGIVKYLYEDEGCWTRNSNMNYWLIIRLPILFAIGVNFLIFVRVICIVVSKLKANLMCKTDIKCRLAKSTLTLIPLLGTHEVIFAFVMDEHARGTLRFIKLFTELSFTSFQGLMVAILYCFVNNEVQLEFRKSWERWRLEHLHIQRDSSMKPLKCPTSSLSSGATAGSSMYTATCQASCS
Outline: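 qHTS in 1536-well format: reporter HEK293 cells expressing constitutive GLP-1R activity in DMEM + 10% Nu serum, 24 hr with compounds at 37 deg C, luminescence read after 12 min with detection reagent.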
Potency means the concentration at half of the fitted maximal effect; tags describe the fitted curve by direction and shape.

Potency, inconclusive:
CC(C)C[C@@H](COCc1ccc(C(F)(F)F)cc1)N1CCN(C(=O)c2ccc(C(F)(F)F)cc2)CCC1=O 12.6 µM [inhibitor, partial curve, poor fit]
COc1ccc(/C=C/C(=O)c2ccc(C(=O)/C=C/c3ccc(OC)c(OC)c3)cc2)cc1OC 31.6 µM [inhibitor, single point]
CCCn1c2ccccc2c2nc3ccccc3nc21 28.2 µM [inhibitor, single point]
CCCc1nc2ccc(NC(=O)NCCC(=O)OCC)cc2c(=O)n1Cc1cccc(Cl)c1 12.6 µM [inhibitor, single point]
O=S(=O)(c1ccc2nc(SCc3cccc(Cl)c3)[nH]c2c1)N1CCOCC1 12.6 µM [inhibitor, single point]
Cc1ccc(O)c(C(CC(=O)N2CCCC2)c2ccccc2)c1 (centres undefined) 28.2 µM [inhibitor, single point]
Cc1ccc(C(NC(=O)C2CCN(CCOc3ccccc3)CC2)c2ccccn2)cc1 (centres undefined) 22.4 µM [inhibitor, single point]
Cc1ccc(OCC(=O)NNC(=O)C2CCN(c3ncnc4sc(C)c(C)c34)CC2)cc1 12.6 µM [inhibitor, single point]
Cc1cc(C)c(-c2n[nH]c3c2C(c2ccccc2F)N(Cc2ccco2)C3=O)c(O)c1 (centres undefined) 28.2 µM [inhibitor, single point]
COCc1ccc(CN2CCCC(CO)(Cc3cccc(Cl)c3)C2)o1 (centres undefined) 28.2 µM [inhibitor, partial curve, poor fit]
CCN(CC)S(=O)(=O)c1cc(NC(=O)C(C)N2CCN(c3ccccn3)CC2)ccc1C (centres undefined) 28.2 µM [inhibitor, single point]
CCOC(=O)c1cccc(NC(=O)c2ccc3c(c2)OCO3)c1 28.2 µM [inhibitor, single point]
O=C(COC(=O)c1c[nH]c2ccccc12)Nc1ccccc1 28.2 µM [inhibitor, single point]
CC1=C(C(=O)N(C(C)C)C(C)C)CC(CC(=O)NCc2cccc3ccccc23)C(=O)N1Cc1ccccc1 (centres undefined) 28.2 µM [inhibitor, single point]
CCc1ccc(OCC(=O)O/N=C(\N)Cc2ccc([N+](=O)[O-])cc2)cc1 22.4 µM [inhibitor, single point]
CCc1ccc(CNC(=O)C2CCN(S(=O)(=O)N3CCCCC3)CC2)cc1 11.2 µM [inhibitor, partial curve, poor fit]
CC(=O)c1c(C)[nH]c(C(=O)Nc2cccc(C(F)(F)F)c2)c1C 31.6 µM [inhibitor, single point]
COc1ccc(C(=O)NCCn2cc(SCc3c(F)cccc3Cl)c3ccccc32)cc1 11.2 µM [inhibitor, single point]
OC(CN1CCN(c2ccccn2)CC1)Cn1c2ccccc2c2ccccc21 (centres undefined) 11.2 µM [inhibitor, single point]
O=C(Nc1cc(Cl)cc(Cl)c1)N[C@@H]1CC[C@@H](CCNS(=O)(=O)c2cccc(F)c2)O[C@@H]1CO 15.8 µM [inhibitor, single point]
COc1ccc(Cc2c(-c3ccc(OC)c(OC)c3)nc3c(C)cc(Br)cn23)c(C)c1 3.16 µM [inhibitor, partial curve, poor fit]
CCC(C)(C)NC(=O)C(c1ccc(F)cc1)N(Cc1ccco1)C(=O)CCC(=O)Nc1ccccn1 (centres undefined) 14.1 µM [inhibitor, single point]
OC(CN1CCOCC1)Cn1c2c(c3ccccc31)CCCC2 (centres undefined) 28.2 µM [inhibitor, single point]
CCOC(=O)[C@]12CCCC=C1N(Cc1ccc(Cl)cc1Cl)C(=O)[C@H](CC(=O)NCCCOC)C2 28.2 µM [inhibitor, single point]
Cc1ccc(NNC(=O)c2ccno2)cc1C 5.01 µM [inhibitor, partial curve]
COc1ccc(S(=O)(=O)N2CCC(C(=O)Nc3ccccc3N3CCCC3)CC2)cc1OC 28.2 µM [inhibitor, single point]
C=C1C2(C(=O)Nc3nccs3)CCC(C2)C1(C)C (centres undefined) 14.1 µM [inhibitor, single point]
CCCC(C(=O)NC1CCCCC1)N(Cc1ccco1)C(=O)CNS(=O)(=O)c1ccccc1 (centres undefined) 12.6 µM [inhibitor, single point]
COc1ccc(CN(C)CC(=O)Nc2ccccc2C(F)(F)F)cc1 6.31 µM [inhibitor, partial curve, poor fit]
CCN1CCC(N(Cc2ccc3c(c2)OCO3)C(=O)Nc2cc(F)ccc2F)CC1 6.31 µM [inhibitor, partial curve]
COc1cccc(CNC(=O)c2ccccc2NC(=O)C2=C(C)OCCS2)c1 28.2 µM [inhibitor, single point]

Potency, inactive:
Cc1cc(C)c(C#N)c(SCC(=O)Nc2ccc3c(c2)OCO3)n1
O=C(CC1CCCCC1)Nc1nc2ccccc2s1
CCOc1ccc(CNC(=O)CSc2nnc(C)c3c(C)n(-c4ccc(Cl)cc4)nc23)cc1
COc1ccc(CNC(=O)CN2C(=O)CC(c3ccc(C)c(C)c3)=Nc3ccccc32)cc1
O=C(CSc1nnc(CNC(=O)c2ccc(F)cc2)o1)NCCc1ccccc1
C=CCN1C(=NC(=O)COc2ccc(Cl)cc2)SC2CS(=O)(=O)CC21 (centres undefined)
COc1ccc(-c2cc(C(F)(F)F)nc(SCCC(=O)Nc3ccc(OC)c(OC)c3)n2)cc1
Cc1cccc(NC(=O)COn2nnc3ccc(S(C)(=O)=O)cc32)c1

— PubChem BioAssay AID624417 (National Center for Advancing Translational Sciences (NCATS), 2012)
